{"source": "paper PMC5787466", "about": "“Accelerated bottom-up drug design platform enables the discovery of novel stearoyl-CoA desaturase 1 inhibitors for cancer therapy” (Oncotarget, 2017)", "key": {"Caki2": {"test_system": "Caki2", "assay": "Proliferation dose-response IC50, Caki2", "format": "cell-based", "conditions": "Homo sapiens, CAKI-2; proliferative IC50, linear regression modeling of dose-response; read-out: IC50 (μM) Caki2", "method": "Error bars indicate standard deviation for n=2 replicates. […] To evaluate inhibition of SCD1 by these molecules, we used LC/MS to quantify changes in SCD1-catalyzed conversion of stearoyl-CoA to oleoyl-CoA in response to drug treatments in vitro using SCD1 protein extracted from murine liver (Figure 3c, Supplementary Figure 2g). […] Synthesis routes and spectral data including NMR and MS are also provided (Supplementary Figures 3-6).\nCells were seeded at 5,000 cells/well in clear-bottom 96-well plates in triplicate. Drug treatment was applied at 1:1000 in reduced serum conditions (3%). […] Alternatively, cells were plated 2x10^5/well in 12-well plates (Genesee Scientific) in triplicate prior to drug treatment. After 120-hour treatment, cell number was established using a Coulter Particle Counter (Beckman). Oleic acid-albumin (Sigma Aldrich) was added to media at 5µM, and was applied adjuvant to drug treatment. Drug stocks were prepared in DMSO (Sigma) at 1000x. IC50 dosing per cell line was calculated using CalcuSyn analytical software."}, "4 ccRCC cell lines": {"test_system": "4 ccRCC cell lines", "assay": "High-throughput proliferative screen, single point", "conditions": "in at least 2/4 ccRCC cell lines"}}}
{"compound": "CNC(=O)c1cc(S(=O)(=O)N2CCC(Oc3ccccc3Cl)CC2)c[nH]1", "note": "[SetA.68]", "values": [{"measurement": "IC50", "setting": "Caki2", "result": 0.009, "unit": "µM"}, {"measurement": "decrease in proliferation", "setting": "4 ccRCC cell lines", "result": "> 40", "unit": "%"}]}
